Measurements published in PubChem BioAssay AID1347165 (National Center for Advancing Translational Sciences (NCATS), 2019).
The campaign covered roughly 220,000 compounds. About 5,700 (2.6%) were called active. Inconclusive means that the source gave no clear call. Such entries were picked first, then a sample of the others. Calls come from the whole dose curve; as a rule, active = well fitted inhibition curve with a large enough effect; inconclusive = small, poorly fitted or top-dose-only effect; inactive = no such curve, though single readings can be large or run the other way. Potencies of inconclusive entries are doubtful fits and often do not repeat.

What follows are compounds tested against Lysine-specific demethylase 5B (Homo sapiens) (UniProt Q9UGL1) (assay: Primary screen for KDM5B Histone Demethylases FDH-coupled qHTS). Conditions: FDH-coupled NADH fluorescence (FDH is formaldehyde dehydrogenase); activity change, negative = inhibition: at 57.7 µM (top of the series) unless noted.
UniProt Q9UGL1, sequence (Q9UGL1 whole entry, looked up): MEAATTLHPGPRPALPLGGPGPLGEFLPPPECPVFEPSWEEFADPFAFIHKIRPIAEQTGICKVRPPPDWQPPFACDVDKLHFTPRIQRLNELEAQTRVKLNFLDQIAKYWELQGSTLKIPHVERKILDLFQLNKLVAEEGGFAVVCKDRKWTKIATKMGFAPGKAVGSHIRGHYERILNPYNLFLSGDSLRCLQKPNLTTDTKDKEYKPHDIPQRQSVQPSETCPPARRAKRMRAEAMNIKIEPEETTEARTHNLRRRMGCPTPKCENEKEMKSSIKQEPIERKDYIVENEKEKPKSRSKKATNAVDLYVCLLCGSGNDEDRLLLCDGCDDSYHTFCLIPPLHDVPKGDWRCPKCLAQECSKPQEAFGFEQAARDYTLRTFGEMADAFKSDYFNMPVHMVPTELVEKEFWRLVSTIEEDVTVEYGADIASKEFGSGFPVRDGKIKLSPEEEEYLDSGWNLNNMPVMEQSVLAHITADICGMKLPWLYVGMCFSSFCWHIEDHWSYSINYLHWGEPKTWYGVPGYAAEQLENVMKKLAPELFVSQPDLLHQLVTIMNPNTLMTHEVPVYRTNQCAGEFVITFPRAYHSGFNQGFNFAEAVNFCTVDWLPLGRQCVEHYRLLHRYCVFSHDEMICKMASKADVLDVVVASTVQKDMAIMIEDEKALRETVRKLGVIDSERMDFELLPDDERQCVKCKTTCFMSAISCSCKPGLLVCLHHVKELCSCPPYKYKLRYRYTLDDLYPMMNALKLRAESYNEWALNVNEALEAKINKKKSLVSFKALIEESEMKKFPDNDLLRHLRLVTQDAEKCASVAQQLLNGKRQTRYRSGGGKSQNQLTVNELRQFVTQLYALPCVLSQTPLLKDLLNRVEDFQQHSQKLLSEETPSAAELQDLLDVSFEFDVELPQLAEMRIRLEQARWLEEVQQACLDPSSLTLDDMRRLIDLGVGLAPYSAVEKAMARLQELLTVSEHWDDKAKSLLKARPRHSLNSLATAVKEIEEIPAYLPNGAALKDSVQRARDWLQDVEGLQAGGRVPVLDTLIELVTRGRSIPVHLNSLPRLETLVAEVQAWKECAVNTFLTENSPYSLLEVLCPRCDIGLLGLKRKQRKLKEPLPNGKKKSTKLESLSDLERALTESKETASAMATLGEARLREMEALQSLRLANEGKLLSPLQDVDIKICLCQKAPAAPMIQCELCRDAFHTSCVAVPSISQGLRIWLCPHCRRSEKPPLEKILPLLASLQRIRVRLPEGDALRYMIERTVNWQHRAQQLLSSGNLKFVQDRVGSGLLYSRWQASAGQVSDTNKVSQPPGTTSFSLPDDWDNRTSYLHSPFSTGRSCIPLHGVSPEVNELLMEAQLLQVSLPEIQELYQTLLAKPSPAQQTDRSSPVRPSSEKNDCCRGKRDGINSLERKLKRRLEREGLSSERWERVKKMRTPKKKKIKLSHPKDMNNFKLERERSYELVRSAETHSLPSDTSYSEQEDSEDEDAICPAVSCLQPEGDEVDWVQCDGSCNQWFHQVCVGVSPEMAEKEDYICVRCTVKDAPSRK
Procedure, shortened: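 Compound dilutions met 200 nM (final) KDM5BΔAP for 10 min at room temperature before substrate addition. The substrate mix held 12.5 µM H3K4me3 with cofactors 25 µM α-ketoglutarate and 50 µM Fe²⁺. NADH signal gain over 30 min defined activity.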
Note: nearly all actives have a fitted effect of over 70% in size.
Potency is the fitted concentration of half-maximal effect; tags give direction and shape of the fitted curve.
Throughout, for activity change, negative = inhibition: 0% is about no effect.

Compound | Potency | activity change, negative = inhibition
CN(C)CCCNC(=O)c1cc2cc(Cl)ccc2[nH]1 | inconclusive: 31.6 µM [inhibitor, single point] | 
COc1ccc(N2CCN(C(=O)c3cc4c(s3)CN(C3CCCC3)C4)CC2)cc1 | inconclusive: 35.5 µM [inhibitor, single point] | 
CCc1cc(=O)oc2cc(C)cc(OC(C)C(=O)O)c12 (configuration not stated) | inconclusive: 22.4 µM [inhibitor, partial curve, poor fit] | 
CCc1ccc(NC(=O)C2CCN(S(=O)(=O)c3c(C)noc3C)CC2)cc1 | inconclusive: 22.4 µM [inhibitor, partial curve, poor fit] | 
O=C(NCc1ccnc2[nH]ccc12)c1cccc(Br)c1 | active: 31.6 µM | 
Cn1nc(C2CCN(C(=O)c3cncc(Br)c3)CC2)c2c1CCOC2 |  | inactive: -14.3%
CCCOc1cccc(-c2cc(C(=O)NC(C)C)c3ccccc3n2)c1 |  | inactive: 14.1%
O=C(Cn1cc(SCc2ccccc2F)c2ccccc21)N1CCCC1 |  | inactive: -12.6%
Cc1noc(C)c1-c1cc2c(cc(C)n2CCN(C)C)c(Nc2ccncn2)n1 | active: 31.6 µM | 
CN(C)c1ccc(C(=O)NC2CC(c3nnc(CO)n3C3CC3)C2)cn1 (configuration not stated) |  | inactive: 1.73%
O=C(Nc1ccc(Br)cc1F)c1cc2nc(-c3ccco3)cc(C(F)(F)Cl)n2n1 | inconclusive: 44.7 µM [inhibitor, single point] | 
O=C(/C=C/c1ccco1)Oc1ccc(Sc2ccc(OC(=O)/C=C/c3ccco3)cc2)cc1 | inconclusive: 28.2 µM [inhibitor, single point] | 
COc1ccc(NC(=O)c2c(NCc3cccs3)sc3c2CCCCC3)c(OC)c1 | inconclusive: 28.2 µM [inhibitor, partial curve, poor fit] | 
NC(=O)C1CC(O)CN1 (configuration not stated) |  | inactive: 10.6%
CCC1CCc2c(sc(NC(=O)C3c4ccccc4Oc4ccccc43)c2C(=O)OC)C1 (configuration not stated) | inconclusive: 31.6 µM [inhibitor, partial curve, poor fit] | 
CN1CC2(CCN(C(=O)c3cc(-n4cccn4)ccc3Cl)CC2)OC1=O |  | inactive: -9.58%
CCOC(=O)N1CCC(NC(=O)c2ccc3c(c2)N(Cc2ccc(Cl)cc2)C(=O)c2ccccc2S3(=O)=O)CC1 | inconclusive: 1.12 µM [inhibitor, full curve, poor fit] | 
N#Cc1ccc(CN2CC(CNC(=O)Nc3ccccc3)C3(C2)CN(c2ccccc2)C3)cc1 (configuration not stated) | inconclusive: 35.5 µM [inhibitor, partial curve, poor fit] | 
N#Cc1cccc(CN2CCC3(CC2)COCCN3C(=O)OCc2ccccc2)c1 |  | inactive: -29.1% [at 86.2 µM]
CCOc1ccc(Cn2c(CNS(=O)(=O)c3ccc(CC)cc3)nc3cccnc32)cc1 | inconclusive: 31.6 µM [inhibitor, single point] | 
CCCn1cc(S(=O)(=O)c2ccc(CC)cc2)c(=O)c2cc(F)c(N3CCN(C)CC3)cc21 | inconclusive: 2.51 µM [inhibitor, partial curve, poor fit] | 

Compound | Potency | activity change, negative = inhibition
Cc1ccc(C2C3=C(CC(C)(C)CC3=O)Nc3c2c(=O)[nH]c(=O)n3C)cc1 (configuration not stated) | inconclusive: 28.2 µM [inhibitor, partial curve, poor fit] | 
COC(=O)c1ccccc1NC(=O)N1CCc2ccc(NC(=O)c3ccccn3)cc2C1 | inconclusive: 31.6 µM [inhibitor, partial curve, poor fit] | 
COc1ccc(OC)c(CCNC(=O)c2nn(C)c3c2CSc2ccccc2-3)c1 | inconclusive: 28.2 µM [inhibitor, partial curve, poor fit] | 
CCc1noc(-c2cccn3c(CNC(=O)c4cccnc4)nnc23)n1 | active: 31.6 µM | 
COc1ccccc1C1c2ccc(O)cc2Oc2ncn3nc(C)nc3c21 (configuration not stated) |  | inactive: 1.65%
Cc1ccc(NC(=O)c2ccc(N(Cc3ccccc3)S(C)(=O)=O)cc2)cc1 |  | inactive: -28.6%
CN(C)C[C@@H]1CN(c2ccncn2)C[C@H]1NC(=O)Cc1c(F)cccc1Cl |  | inactive: -10.7%
CN(C)CCN(C)[C@H]1[C@@H]2OC[C@@H](O2)[C@@H](NCc2ccc(N(C)C)cc2)[C@@H]1O | inconclusive: 14.1 µM [inhibitor, partial curve, poor fit] | 
O=C(Nc1nc2c(s1)CCCC2)c1ccccc1F | inconclusive: 31.6 µM [inhibitor, single point] | 
CN(C)c1ccc(C(=O)N2CC[C@H]3NC(=O)N(c4ccc(Oc5ccccc5)cc4)C(=O)[C@H]32)cc1 | inconclusive: 22.4 µM [inhibitor, single point] | 
O=C(Nc1ccccc1C(=O)NCCc1ccccc1)c1cnc2ccccc2n1 |  | inactive: 7.75%
Cc1ccc(C(=O)NC(C(=O)N2CCCCC2)C2CCN(C(=O)C3CCCC3)CC2)cc1 (configuration not stated) | inconclusive: 25.1 µM [inhibitor, single point] | 
CN(C)C(=O)C1CCN(c2oc(-c3ccco3)nc2C#N)CC1 | inconclusive: 25.1 µM [inhibitor, partial curve, poor fit] | 
CCOC(=O)c1ccc(N2C(=O)c3n[nH]c(-c4cccs4)c3C2c2ccc(OC)cc2OC)cc1 (configuration not stated) | inconclusive: 2 µM [inhibitor, partial curve, poor fit] | 
CN1CC2(CCCN(C(=O)c3cn4cc(Cl)ccc4n3)C2)OC1=O (configuration not stated) | inconclusive: 17.8 µM [inhibitor, single point] | 
O=C(Cc1ccsc1)OCC(=O)c1ccc2c(c1)OCCO2 |  | inactive: 11.8%
CC(C)c1ccc(C(=O)N2C[C@@H](CO)[C@H](N(C)C)C2)cc1 |  | inactive: 31.1%
COc1cc(-c2onc(C)c2C(=O)N(C)Cc2ccccc2)cc(OC)c1OC | inconclusive: 25.1 µM [inhibitor, partial curve, poor fit] | 
CN(C)c1ccc(C(=O)Nc2ccc(-c3nc4ccccc4o3)cc2)cc1 | inconclusive: 14.1 µM [inhibitor, partial curve, poor fit] | 
O=C1CCN(C(=O)[C@@H]2CCCN2C(=O)Nc2ccccc2)CCCCCCN1 |  | inactive: 15.6%
O=C(O)c1cccc(-c2cc3ccccc3oc2=O)c1 | inconclusive: 28.2 µM [inhibitor, partial curve, poor fit] | 
